{
  "source": "the BET-seq Pho4 binding data (Le et al. 2018)",
  "note": "This is one part of the list. These are noisy estimates, calculated here from bound and input reads.",
  "data": [
    {"molecular_target": "T1, Pho4 (S. cerevisiae) (UniProt P07270)", "T1 sequence": "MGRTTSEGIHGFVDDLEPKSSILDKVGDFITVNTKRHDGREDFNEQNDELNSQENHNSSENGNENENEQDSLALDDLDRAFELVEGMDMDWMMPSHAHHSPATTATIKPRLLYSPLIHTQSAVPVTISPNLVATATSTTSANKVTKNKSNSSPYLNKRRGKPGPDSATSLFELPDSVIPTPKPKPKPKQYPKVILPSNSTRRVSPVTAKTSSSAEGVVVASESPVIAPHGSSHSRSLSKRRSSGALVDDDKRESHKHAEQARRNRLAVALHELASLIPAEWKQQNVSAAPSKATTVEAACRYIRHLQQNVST", "test": "relative binding free energy (BET-seq); higher = weaker binding", "conditions": "reference: library average", "units": {"relative binding free energy": "kcal/mol"}, "values": [
      {"sequence": "TTTGTCACGTGTGACT", "relative binding free energy": 0.28},
      {"sequence": "ATGAGCACGTGTGGTC", "relative binding free energy": -0.06},
      {"sequence": "ATGTTCACGTGAAGTA", "relative binding free energy": 0.21},
      {"sequence": "TTGACCACGTGTATGT", "relative binding free energy": -0.04},
      {"sequence": "ACTTTCACGTGGGGGA", "relative binding free energy": 0.13},
      {"sequence": "GTTCTCACGTGGGAAG", "relative binding free energy": 0.3},
      {"sequence": "GTGCGCACGTGCGGGG", "relative binding free energy": -0.16},
      {"sequence": "GTGTCCACGTGTTGGT", "relative binding free energy": 0.02},
      {"sequence": "AGGGTCACGTGGTTGA", "relative binding free energy": -0.02},
      {"sequence": "AGGGGCACGTGCCGGA", "relative binding free energy": -0.37},
      {"sequence": "TGAGACACGTGGGGGG", "relative binding free energy": -0.19},
      {"sequence": "ACAAGCACGTGGGGTT", "relative binding free energy": -0.07},
      {"sequence": "TTGATCACGTGAAGGG", "relative binding free energy": 0.37},
      {"sequence": "GTAGTCACGTGCAGGC", "relative binding free energy": 0.2},
      {"sequence": "TTTGTCACGTGTGATA", "relative binding free energy": 0.24},
      {"sequence": "CTGGACACGTGTTGGA", "relative binding free energy": 0.17},
      {"sequence": "TATATCACGTGTCGGG", "relative binding free energy": 0.07},
      {"sequence": "CTGGTCACGTGTTGGT", "relative binding free energy": 0.15},
      {"sequence": "GGATTCACGTGGTATT", "relative binding free energy": 0.22},
      {"sequence": "AGTTTCACGTGCGCGT", "relative binding free energy": 0.26},
      {"sequence": "CTTGTCACGTGGGTGT", "relative binding free energy": -0.1},
      {"sequence": "TATGACACGTGTGGCT", "relative binding free energy": -0.02},
      {"sequence": "TTGGCCACGTGTATAT", "relative binding free energy": -0.07},
      {"sequence": "CGGTACACGTGGCGGA", "relative binding free energy": 0.05},
      {"sequence": "GAGGACACGTGTTTTG", "relative binding free energy": 0.21},
      {"sequence": "ATCATCACGTGTAGGT", "relative binding free energy": 0.18},
      {"sequence": "TGGTACACGTGTGGAT", "relative binding free energy": 0.03},
      {"sequence": "GGTCACACGTGGCTTG", "relative binding free energy": 0.06},
      {"sequence": "CCGTTCACGTGTGTTG", "relative binding free energy": 0.28},
      {"sequence": "GGGGTCACGTGTTTAA", "relative binding free energy": 0.17},
      {"sequence": "CGCGGCACGTGTGAGA", "relative binding free energy": 0.04},
      {"sequence": "CTTATCACGTGGGAGA", "relative binding free energy": 0.01},
      {"sequence": "TTGGTCACGTGGACTA", "relative binding free energy": 0.03},
      {"sequence": "GTAGACACGTGGTAGT", "relative binding free energy": -0.02},
      {"sequence": "GAGCTCACGTGGTGGA", "relative binding free energy": 0.31},
      {"sequence": "TTGAGCACGTGTGATA", "relative binding free energy": 0.04},
      {"sequence": "AGGCACACGTGGTGGT", "relative binding free energy": -0.06},
      {"sequence": "ATGTTCACGTGTACGT", "relative binding free energy": 0.15},
      {"sequence": "TTGAACACGTGGGGTC", "relative binding free energy": -0.1},
      {"sequence": "CTGTTCACGTGGATAG", "relative binding free energy": 0.13},
      {"sequence": "GGTATCACGTGAGAGA", "relative binding free energy": 0.41},
      {"sequence": "ATGGTCACGTGGACTT", "relative binding free energy": 0.17},
      {"sequence": "TGGGACACGTGAGACG", "relative binding free energy": 0.26},
      {"sequence": "GTATTCACGTGTAATA", "relative binding free energy": 0.33},
      {"sequence": "GTTAGCACGTGTGGAT", "relative binding free energy": 0.12},
      {"sequence": "ATAAGCACGTGTTTAT", "relative binding free energy": -0.16},
      {"sequence": "GATATCACGTGTGCGT", "relative binding free energy": 0.22},
      {"sequence": "TATGTCACGTGGGAGT", "relative binding free energy": -0.09},
      {"sequence": "TGATTCACGTGTGAGT", "relative binding free energy": 0.24},
      {"sequence": "AATGGCACGTGAACGG", "relative binding free energy": 0.18},
      {"sequence": "GGGGCCACGTGGTGCT", "relative binding free energy": -0.13},
      {"sequence": "CCGTGCACGTGGTGTT", "relative binding free energy": -0.18},
      {"sequence": "ATTATCACGTGGAGCT", "relative binding free energy": 0.05},
      {"sequence": "TGGTGCACGTGGAAGT", "relative binding free energy": 0.07},
      {"sequence": "GAGTACACGTGCGGTT", "relative binding free energy": 0.18},
      {"sequence": "AAAAACACGTGGGAGG", "relative binding free energy": 0},
      {"sequence": "TGAAGCACGTGCTATG", "relative binding free energy": -0.09},
      {"sequence": "TTGAACACGTGCAGTG", "relative binding free energy": 0.02},
      {"sequence": "AATATCACGTGAGTAG", "relative binding free energy": 0.31},
      {"sequence": "AGGAGCACGTGGATTT", "relative binding free energy": 0.11},
      {"sequence": "TTATGCACGTGTTGGA", "relative binding free energy": -0.04},
      {"sequence": "CCGGGCACGTGGGGGG", "relative binding free energy": -0.29},
      {"sequence": "GGGATCACGTGCGGTC", "relative binding free energy": 0.2}
    ]}
  ]
}
